Among all 310,000 compounds or so, about 2,200 (0.71%) showed an effect of 50% or more. The effect is printed as a negative number. This is one part of the list.

Sequence of human ether-à-go-go-related gene (hERG) potassium channel (Q12809 whole entry, looked up): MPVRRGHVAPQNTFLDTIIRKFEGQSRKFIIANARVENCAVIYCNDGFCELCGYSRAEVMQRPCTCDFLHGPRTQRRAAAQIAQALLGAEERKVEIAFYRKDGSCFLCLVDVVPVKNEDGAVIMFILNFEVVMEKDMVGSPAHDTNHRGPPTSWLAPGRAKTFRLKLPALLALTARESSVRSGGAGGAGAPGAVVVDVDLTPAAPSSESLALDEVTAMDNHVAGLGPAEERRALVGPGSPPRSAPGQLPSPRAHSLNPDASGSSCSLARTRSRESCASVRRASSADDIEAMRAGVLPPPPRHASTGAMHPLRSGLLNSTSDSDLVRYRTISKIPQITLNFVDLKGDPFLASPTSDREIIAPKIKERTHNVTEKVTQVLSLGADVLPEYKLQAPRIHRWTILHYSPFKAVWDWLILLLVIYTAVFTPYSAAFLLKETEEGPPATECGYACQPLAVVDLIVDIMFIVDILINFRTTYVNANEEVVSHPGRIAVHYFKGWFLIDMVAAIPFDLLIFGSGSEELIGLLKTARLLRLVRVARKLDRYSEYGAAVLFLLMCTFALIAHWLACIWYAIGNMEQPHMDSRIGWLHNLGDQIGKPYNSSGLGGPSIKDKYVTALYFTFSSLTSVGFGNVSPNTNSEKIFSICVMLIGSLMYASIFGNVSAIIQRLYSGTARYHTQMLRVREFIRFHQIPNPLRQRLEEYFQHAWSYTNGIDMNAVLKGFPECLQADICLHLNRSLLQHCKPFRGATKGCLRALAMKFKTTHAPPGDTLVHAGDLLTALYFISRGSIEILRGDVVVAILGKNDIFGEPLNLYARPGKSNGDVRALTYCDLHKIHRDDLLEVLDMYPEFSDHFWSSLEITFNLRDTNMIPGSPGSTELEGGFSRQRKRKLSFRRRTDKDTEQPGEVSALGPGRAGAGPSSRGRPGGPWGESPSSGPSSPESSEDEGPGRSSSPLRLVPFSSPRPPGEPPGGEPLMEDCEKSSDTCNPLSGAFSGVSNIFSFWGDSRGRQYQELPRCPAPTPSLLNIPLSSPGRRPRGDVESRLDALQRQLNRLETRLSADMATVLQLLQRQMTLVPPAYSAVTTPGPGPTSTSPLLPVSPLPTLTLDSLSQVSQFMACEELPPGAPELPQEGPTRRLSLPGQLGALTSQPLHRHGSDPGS

The assay concerns the target human ether-à-go-go-related gene (hERG) potassium channel (human, UniProt Q12809). Description: primary screen, population patch clamp on CHO cells stably expressing hERG.
Turning to `Cc1nnc(-c2cnn(-c3ccccc3)c2N)n1Cc1ccccc1`, the “hERG current change (%, negative = inhibition) at 1uM” value is -4.57%.
The result for `COc1ccc(NC(=O)C(c2ccccc2)N(C)C(=O)CNC(C)=O)cc1` (stereo not drawn) reads 29%; that for `CN(C)CCCN(C(=O)c1ccc(S(=O)(=O)N(C)Cc2ccccc2)cc1)c1nc2c(F)cccc2s1.Cl`, -12%; that for `O=C1c2ccccc2C(O)(c2ccccc2)N1C1CC1` (stereo not drawn), -8.45%.
Consider `COc1cccc(/C=C2/SC(=S)N(CCCC(=O)Nc3ccc(O)cc3)C2=O)c1`, for which the “hERG current change (%, negative = inhibition) at 1uM” value is reported as 13.5%.
On to `O=C(NNS(=O)(=O)c1ccccc1[N+](=O)[O-])c1ccc(F)cc1`, for which the “hERG current change (%, negative = inhibition) at 1uM” value is given as 10.4%.
As for `O=C(C[n+]1ccccc1)Nc1ccccc1C(F)(F)F.[Cl-]`, the “hERG current change (%, negative = inhibition) at 1uM” value was 15.7%.
Turning to `Cn1cc(C(=O)C(=O)N2CCc3ccccc32)c2ccccc21`, the “hERG current change (%, negative = inhibition) at 1uM” value is 17.4%.
The result for `CCOC(=O)c1sc2nc(C)nc(N3CCCCC3C)c2c1C` (stereo not drawn) reads -5.1%; that for `Cc1ccc(S(=O)(=O)N2CCOCC2)cc1C(=O)NC1CCCC1`, 16.7%.
For `CSc1ccc(/C=C/C(=O)c2ccc(NC(C)=O)cc2)cc1`, the “hERG current change (%, negative = inhibition) at 1uM” value came out at 5.65%.
Turning to `Cc1ccc2nc(NCCCO)[nH]c2c1`, the “hERG current change (%, negative = inhibition) at 1uM” value worked out at 15%.
For the compound `c1ccc(-c2nnsc2-c2ccccc2)cc1`, the “hERG current change (%, negative = inhibition) at 1uM” value is 13.7%.
As to `Oc1c(CN2CCCCC2)cc(Br)c2cccnc12`, the “hERG current change (%, negative = inhibition) at 1uM” value worked out at 10.4%.
For `Cc1cc(C)nc(NC(=NCCc2c[nH]c3ccccc23)NC(=O)Nc2ccc(Cl)cc2)n1` the value was 9.67%.
For the compound `S=c1[nH]nc(Cc2cccs2)n1-c1cccc2ccccc12`, the “hERG current change (%, negative = inhibition) at 1uM” value was found to be 5.83%.
For `CNC[C@@H](C)NC[C@@H](Cc1ccccc1)NCCc1ccccc1` the value was 0.0148%; for `O=C(N/N=C/c1cccc(Br)c1)c1ccc(Cn2cc(Br)cn2)o1`, -9.02%.
As for `Cc1cccn2c(=O)c3cc(C(=O)NC4CCCC4)c(=N)n(CCc4ccccc4)c3nc12`, the “hERG current change (%, negative = inhibition) at 1uM” value was -33.8%.
For `C/C(=N\NC(=O)c1ccco1)c1ccc(C(=O)O)s1` the value was 1.99%; for `COc1ccc(C2=NOC(C(=O)NC3CCCCC3)C2)cc1OC` (stereo not drawn), 3.75%.
For `O=C(Nc1cccc(S(=O)(=O)NCc2ccco2)c1)c1cc(-c2ccc(F)cc2)nc2ccccc12` the value was 5.77%; for `Cc1ccc(C)c2[nH]c(=O)c(CN(CCN3CCCC3)C(=O)Nc3cccc(Cl)c3)cc12`, -35.6%.
For `COCCN(C(=O)COC(=O)C1CCC(C(C)(C)C)CC1)c1c(N)n(Cc2ccccc2)c(=O)[nH]c1=O` (stereo not drawn) the value was -1.05%.

These data come from article PMC4336329 (PLoS ONE, 2015).
